Results taken from the supplement of paper PMC12217912.
Some of the results follow. Sequences were assembled here from the parent chain. Values near 0.05 are background.

B1: TEV protease; numbered along this chain (parent)
chain: MGESLFKGPRDYNPISSSICHLTNESDGHTTSLYGIGFGPFIITNKHLFRRNNGTLVVQSLHGVFKVKDTTTLQQHLVDGRDMIIIRMPKDFPPFPQKLKFREPQREERICLVTTNFQTKSMSSMVSDTSCTFPSGDGIFWKHWIQTKDGQCGSPLVSTRDGFIVGIHSASNFTNTNNYFTSVPKNFMELLTNQEAQQWVSGWRLNADSVLWGGHKVFMVKPEEPFQPVKEATQL

Variants of: B1
Assay: raw area under fraction-flipped curve 0-4 h after induction (AUC4h, not background-subtracted), DNA-recorder readout of cleavage of the substrate (dimensionless); higher = more cleavage of the substrate by the protease variant
Conditions: temperature: 34 °C; time window: 0-4 h after rhamnose induction
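Note: Bxb1 expression induced with 0.2% (w/v) L-rhamnose at OD600 near 0.5, cultures sampled hourly, flipped fraction per protease–substrate barcode pair counted by paired-end Illumina sequencing.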

Question: Which “area with substrate ENLYGQS” value does the source give for A196T here?
Answer: 0.0654

Question: What about the “area with substrate ENLYHQS” value of the same variant?
Answer: 0.0673

Question: And the “area with substrate ENLYIQS” value?
Answer: 0.12

Question: What about the “area with substrate ENLYKQS” value of the same variant?
Answer: 0.0654

Question: And the “area with substrate ENLYNQS” value?
Answer: 0.0684

Question: What about the “area with substrate ENLYQQS” value of the same variant?
Answer: 0.0469

Question: And the “area with substrate ENLYRQS” value?
Answer: 0.0616

Question: And the “area with substrate ENLYSQS” value?
Answer: 0.0773

Question: And the “area with substrate ENLYVQS” value?
Answer: 0.135

Question: And the “area with substrate ENLYWQS” value?
Answer: 0.0633

Question: And the “area with substrate ENLYYQS” value?
Answer: 0.0497

Question: For F187L, which “area with substrate ENLYGQS” value is on record?
Answer: 0.0687

Question: What about the “area with substrate ENLYHQS” value of the same variant?
Answer: 0.0644

Question: And the “area with substrate ENLYKQS” value?
Answer: 0.0419

Question: What about the “area with substrate ENLYMQS” value of the same variant?
Answer: 0.089

Question: And the “area with substrate ENLYNQS” value?
Answer: 0.0756

Question: What about the “area with substrate ENLYPQS” value of the same variant?
Answer: 0.0767

Question: What about the “area with substrate ENLYQQS” value of the same variant?
Answer: 0.0415

Question: And the “area with substrate ENLYRQS” value?
Answer: 0.067

Question: What about the “area with substrate ENLYSQS” value of the same variant?
Answer: 0.0902

Question: And the “area with substrate ENLYTQS” value?
Answer: 0.106

Question: What about the “area with substrate ENLYVQS” value of the same variant?
Answer: 0.0885

Question: And the “area with substrate ENLYWQS” value?
Answer: 0.0829

Question: What about the “area with substrate ENLYYQS” value of the same variant?
Answer: 0.0672

Question: Which results are given for T147C?
Answer: area with substrate ENLYHQS: 0.0746; area with substrate ENLYIQS: 0.0935; area with substrate ENLYKQS: 0.094; area with substrate ENLYNQS: 0.0619; area with substrate ENLYSQS: 0.0413; area with substrate ENLYTQS: 0.0615; area with substrate ENLYWQS: 0.0807

Question: For N186I, which “area with substrate ENLYKQS” value is on record?
Answer: 0.0603

Question: And the “area with substrate ENLYMQS” value?
Answer: 0.0414

Question: And the “area with substrate ENLYTQS” value?
Answer: 0.0737

Question: And the “area with substrate ENLYWQS” value?
Answer: 0.0536

Question: With R87K as the variant, how does the “area with substrate ENLYGQS” value read?
Answer: 0.091

Question: What about the “area with substrate ENLYHQS” value of the same variant?
Answer: 0.0662

Question: And the “area with substrate ENLYIQS” value?
Answer: 0.188

Question: What about the “area with substrate ENLYSQS” value of the same variant?
Answer: 0.0911

Question: And the “area with substrate ENLYWQS” value?
Answer: 0.105

Question: What does the source list for R87W?
Answer: area with substrate ENLYGQS: 0.0627; area with substrate ENLYHQS: 0.0662; area with substrate ENLYKQS: 0.0775; area with substrate ENLYLQS: 0.108; area with substrate ENLYMQS: 0.0682; area with substrate ENLYQQS: 0.065; area with substrate ENLYRQS: 0.0575; area with substrate ENLYSQS: 0.0756; area with substrate ENLYTQS: 0.0556; area with substrate ENLYWQS: 0.061; area with substrate ENLYYQS: 0.0732

Question: Which results are given for E189S?
Answer: area with substrate ENLYIQS: 0.125; area with substrate ENLYKQS: 0.0736; area with substrate ENLYNQS: 0.0649; area with substrate ENLYQQS: 0.0446; area with substrate ENLYRQS: 0.0687; area with substrate ENLYVQS: 0.0975; area with substrate ENLYYQS: 0.0563

Question: What does the source list for P228A?
Answer: area with substrate ENLYEQS: 0.0466; area with substrate ENLYHQS: 0.0492; area with substrate ENLYIQS: 0.122; area with substrate ENLYKQS: 0.0605; area with substrate ENLYQQS: 0.0221; area with substrate ENLYVQS: 0.181; area with substrate ENLYWQS: 0.0776

Question: With P228D as the variant, how does the “area with substrate ENLYGQS” value read?
Answer: 0.0636

Question: And the “area with substrate ENLYHQS” value?
Answer: 0.0545

Question: And the “area with substrate ENLYMQS” value?
Answer: 0.0916

Question: And the “area with substrate ENLYRQS” value?
Answer: 0.082

Question: What about the “area with substrate ENLYVQS” value of the same variant?
Answer: 0.128

Question: What about the “area with substrate ENLYWQS” value of the same variant?
Answer: 0.0782

Question: Which results are given for G8E?
Answer: area with substrate ENLYHQS: 0.0784; area with substrate ENLYKQS: 0.0603; area with substrate ENLYNQS: 0.0741

Question: For K7E, which “area with substrate ENLYHQS” value is on record?
Answer: 0.0822

Question: And the “area with substrate ENLYKQS” value?
Answer: 0.0671

Question: And the “area with substrate ENLYMQS” value?
Answer: 0.0834

Question: What about the “area with substrate ENLYPQS” value of the same variant?
Answer: 0.0523

Question: And the “area with substrate ENLYRQS” value?
Answer: 0.0661

Question: And the “area with substrate ENLYWQS” value?
Answer: 0.0825

Question: What does the source list for V67Q?
Answer: area with substrate ENLYGQS: 0.0553; area with substrate ENLYHQS: 0.0682; area with substrate ENLYIQS: 0.106; area with substrate ENLYKQS: 0.0632; area with substrate ENLYPQS: 0.0755

Question: What does the source list for T115P?
Answer: area with substrate ENLYHQS: 0.0751; area with substrate ENLYLQS: 0.08; area with substrate ENLYMQS: 0.0889; area with substrate ENLYNQS: 0.0594; area with substrate ENLYPQS: 0.0695; area with substrate ENLYQQS: 0.0778; area with substrate ENLYTQS: 0.0756; area with substrate ENLYVQS: 0.112; area with substrate ENLYYQS: 0.0649

Question: For K221A, which “area with substrate ENLYEQS” value is on record?
Answer: 0.0538

Question: What about the “area with substrate ENLYGQS” value of the same variant?
Answer: 0.0514

Question: And the “area with substrate ENLYNQS” value?
Answer: 0.0592

Question: And the “area with substrate ENLYPQS” value?
Answer: 0.0719

Question: What about the “area with substrate ENLYQQS” value of the same variant?
Answer: 0.0794

Question: And the “area with substrate ENLYRQS” value?
Answer: 0.0556

Question: What does the source list for C131Y?
Answer: area with substrate ENLYIQS: 0.185; area with substrate ENLYMQS: 0.063; area with substrate ENLYRQS: 0.0708; area with substrate ENLYSQS: 0.0752

Question: With P104Q as the variant, how does the “area with substrate ENLYIQS” value read?
Answer: 0.0465

Question: And the “area with substrate ENLYKQS” value?
Answer: 0.0378

Question: What about the “area with substrate ENLYNQS” value of the same variant?
Answer: 0.0414

Question: What about the “area with substrate ENLYPQS” value of the same variant?
Answer: 0.0227

Question: And the “area with substrate ENLYRQS” value?
Answer: 0.0583

Question: And the “area with substrate ENLYSQS” value?
Answer: 0.0522

Question: With V58Q as the variant, how does the “area with substrate ENLYVQS” value read?
Answer: 0.0335

Question: Which “area with substrate ENLYGQS” value does the source give for V58T here?
Answer: 0.018

Question: And the “area with substrate ENLYNQS” value?
Answer: 0.0663

Question: And the “area with substrate ENLYPQS” value?
Answer: 0.0487

Question: What about the “area with substrate ENLYVQS” value of the same variant?
Answer: 0.0634

Question: For N193D, which “area with substrate ENLYKQS” value is on record?
Answer: 0.064

Question: What about the “area with substrate ENLYNQS” value of the same variant?
Answer: 0.0671

Question: What about the “area with substrate ENLYPQS” value of the same variant?
Answer: 0.0594

Question: What about the “area with substrate ENLYRQS” value of the same variant?
Answer: 0.0696

Question: What about the “area with substrate ENLYWQS” value of the same variant?
Answer: 0.0594

Question: And the “area with substrate ENLYYQS” value?
Answer: 0.0682

Question: For N175W, which “area with substrate ENLYKQS” value is on record?
Answer: 0.0895

Question: And the “area with substrate ENLYNQS” value?
Answer: 0.0578

Question: What about the “area with substrate ENLYPQS” value of the same variant?
Answer: 0.054

Question: And the “area with substrate ENLYQQS” value?
Answer: 0.0538

Question: And the “area with substrate ENLYRQS” value?
Answer: 0.0582

Question: And the “area with substrate ENLYSQS” value?
Answer: 0.0595

Question: What does the source list for M219H?
Answer: area with substrate ENLYEQS: 0.0743; area with substrate ENLYGQS: 0.0624; area with substrate ENLYHQS: 0.0666; area with substrate ENLYIQS: 0.0672; area with substrate ENLYMQS: 0.0807; area with substrate ENLYNQS: 0.0563; area with substrate ENLYPQS: 0.0527; area with substrate ENLYRQS: 0.0607; area with substrate ENLYVQS: 0.0717; area with substrate ENLYWQS: 0.104

Question: With I84Q as the variant, how does the “area with substrate ENLYHQS” value read?
Answer: 0.0552

Question: What about the “area with substrate ENLYLQS” value of the same variant?
Answer: 0.068

Question: And the “area with substrate ENLYNQS” value?
Answer: 0.0577

Question: What about the “area with substrate ENLYPQS” value of the same variant?
Answer: 0.043

Question: What about the “area with substrate ENLYSQS” value of the same variant?
Answer: 0.0758

Question: With Y34W as the variant, how does the “area with substrate ENLYHQS” value read?
Answer: 0.0725

Question: With P93F as the variant, how does the “area with substrate ENLYGQS” value read?
Answer: 0.0506

Question: What about the “area with substrate ENLYHQS” value of the same variant?
Answer: 0.0661

Question: What about the “area with substrate ENLYMQS” value of the same variant?
Answer: 0.0738

Question: And the “area with substrate ENLYNQS” value?
Answer: 0.0618

Question: And the “area with substrate ENLYPQS” value?
Answer: 0.0583

Question: What about the “area with substrate ENLYRQS” value of the same variant?
Answer: 0.049

Question: What about the “area with substrate ENLYSQS” value of the same variant?
Answer: 0.0694

Question: And the “area with substrate ENLYYQS” value?
Answer: 0.0399

Question: Which results are given for P93R?
Answer: area with substrate ENLYHQS: 0.0707; area with substrate ENLYLQS: 0.069; area with substrate ENLYMQS: 0.0556; area with substrate ENLYQQS: 0.0673; area with substrate ENLYTQS: 0.0753; area with substrate ENLYVQS: 0.106; area with substrate ENLYWQS: 0.0948

Question: Which results are given for P93Y?
Answer: area with substrate ENLYGQS: 0.0809; area with substrate ENLYHQS: 0.0651; area with substrate ENLYKQS: 0.0686; area with substrate ENLYPQS: 0.0789; area with substrate ENLYRQS: 0.0576; area with substrate ENLYWQS: 0.0688; area with substrate ENLYYQS: 0.0673

Question: With N178W as the variant, how does the “area with substrate ENLYGQS” value read?
Answer: 0.0792

Question: What about the “area with substrate ENLYMQS” value of the same variant?
Answer: 0.106

Question: And the “area with substrate ENLYWQS” value?
Answer: 0.113

Question: With F92R as the variant, how does the “area with substrate ENLYWQS” value read?
Answer: 0.0552

Question: With F117W as the variant, how does the “area with substrate ENLYHQS” value read?
Answer: 0.0692

Question: And the “area with substrate ENLYKQS” value?
Answer: 0.0438

Question: What about the “area with substrate ENLYMQS” value of the same variant?
Answer: 0.09

Question: And the “area with substrate ENLYNQS” value?
Answer: 0.0528

Question: What about the “area with substrate ENLYQQS” value of the same variant?
Answer: 0.0636

Question: And the “area with substrate ENLYSQS” value?
Answer: 0.0741

Question: For N172K, which “area with substrate ENLYHQS” value is on record?
Answer: 0.0818

Question: What about the “area with substrate ENLYKQS” value of the same variant?
Answer: 0.0488

Question: What about the “area with substrate ENLYPQS” value of the same variant?
Answer: 0.0546

Question: And the “area with substrate ENLYTQS” value?
Answer: 0.0644

Question: Which “area with substrate ENLYKQS” value does the source give for P134K here?
Answer: 0.0653

Question: And the “area with substrate ENLYMQS” value?
Answer: 0.0737

Question: And the “area with substrate ENLYNQS” value?
Answer: 0.0917

Question: And the “area with substrate ENLYPQS” value?
Answer: 0.0691

Question: And the “area with substrate ENLYQQS” value?
Answer: 0.0597

Question: And the “area with substrate ENLYWQS” value?
Answer: 0.0809
